Measured values taken from patent US20030065015A1 (priority 2001, published 2003).

Conditions: extraction from a strongly acidic solution (1 M HCl)
Protocol: To measure the partition coefficient for a facilitating anion in the presence of a quaternary ammonium compound, an acidified aqueous solution of the quaternary ammonium compound with a non-facilitating anion (e.g., tosylate, bromide or chloride) is first prepared. Sodium bicarbonate and a salt comprising the facilitating anion to be tested are then added to the aqueous solution. The salt comprising the facilitating anion should be added in an amount sufficient to provide a 1:1 molar ratio of the facilitating anion to the quaternary ammonium cation. The sodium bicarbonate is provided in an amount sufficient to produce a preselected pH value. An equal volume of n-octanol is then added to this solution. […] The mixture is centrifuged to separate an octanol layer and an aqueous layer, and the distribution ratio of the quaternary ammonium cation between the octanol-rich phase and the aqueous-rich phase (that is, the partition coefficient) may be measured. […]
Several formulations of the present invention were tested using an n-octanol/aqueous buffer system to measure the partition coefficients for the 2-PAM cation in the presence of the various facilitating anions. […] The mixture was centrifuged to separate an octanol layer and an aqueous layer, and the distribution ratio of the 2-PAM cation between the octanol-rich phase and the aqueous-rich phase (that is, the partition coefficient) was measured. […]

C[n+]1ccccc1/C=N/O [2-PAM chloride, 2-[(hydroxyimino)methyl]-1-methylpyrdinium chloride]
partition coefficient: around 0.01
